Reference: PubChem BioAssay AID1645887 (National Center for Advancing Translational Sciences (NCATS), 2021)
Several values for one entry are separate records, joined by “and”; a condition that tells them apart may be missing. Identical values can stand only once. Among all 16,000 compounds or so, about 40 (0.2%) were called active. Not shown: some 1% with an inconclusive outcome. The call rests on the fitted dose curve; in most records, active means well fitted activation curve with a large enough effect; inconclusive means small, poorly fitted or top-dose-only effect, or another doubt; inactive means no such curve, though single readings can be large or run the other way. The list shows a part of the results.

target: Rap guanine nucleotide exchange factor 4 (Homo sapiens) (UniProt Q8WZA2); test: Validation qHTS for agonist of cAMP-regulated guanine nucleotide exchange factor 4 (EPAC2); conditions: EPAC2 Rap1B BODIPY-GDP exchange, fluorescence; activation: stronger effect = higher value;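 further: exchange makes BODIPY-GDP fluorescence drop when released from Rap1B; series mostly up to about 150 µM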
In short: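 Signal normalized against 6.5 mM cAMP as agonist control. Mix of EPAC2 (100 nM), RAP1B-BODIPY-GDP (250 nM) and GDP (50 uM) was read kinetically at 480/540 nm, every 5 min over 30 min, after 5 min room-temperature incubation with compound.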
On the % scale 0 is the no-effect control and ±100 the full control effect.

Sequence of UniProt Q8WZA2 (Q8WZA2 whole entry, looked up): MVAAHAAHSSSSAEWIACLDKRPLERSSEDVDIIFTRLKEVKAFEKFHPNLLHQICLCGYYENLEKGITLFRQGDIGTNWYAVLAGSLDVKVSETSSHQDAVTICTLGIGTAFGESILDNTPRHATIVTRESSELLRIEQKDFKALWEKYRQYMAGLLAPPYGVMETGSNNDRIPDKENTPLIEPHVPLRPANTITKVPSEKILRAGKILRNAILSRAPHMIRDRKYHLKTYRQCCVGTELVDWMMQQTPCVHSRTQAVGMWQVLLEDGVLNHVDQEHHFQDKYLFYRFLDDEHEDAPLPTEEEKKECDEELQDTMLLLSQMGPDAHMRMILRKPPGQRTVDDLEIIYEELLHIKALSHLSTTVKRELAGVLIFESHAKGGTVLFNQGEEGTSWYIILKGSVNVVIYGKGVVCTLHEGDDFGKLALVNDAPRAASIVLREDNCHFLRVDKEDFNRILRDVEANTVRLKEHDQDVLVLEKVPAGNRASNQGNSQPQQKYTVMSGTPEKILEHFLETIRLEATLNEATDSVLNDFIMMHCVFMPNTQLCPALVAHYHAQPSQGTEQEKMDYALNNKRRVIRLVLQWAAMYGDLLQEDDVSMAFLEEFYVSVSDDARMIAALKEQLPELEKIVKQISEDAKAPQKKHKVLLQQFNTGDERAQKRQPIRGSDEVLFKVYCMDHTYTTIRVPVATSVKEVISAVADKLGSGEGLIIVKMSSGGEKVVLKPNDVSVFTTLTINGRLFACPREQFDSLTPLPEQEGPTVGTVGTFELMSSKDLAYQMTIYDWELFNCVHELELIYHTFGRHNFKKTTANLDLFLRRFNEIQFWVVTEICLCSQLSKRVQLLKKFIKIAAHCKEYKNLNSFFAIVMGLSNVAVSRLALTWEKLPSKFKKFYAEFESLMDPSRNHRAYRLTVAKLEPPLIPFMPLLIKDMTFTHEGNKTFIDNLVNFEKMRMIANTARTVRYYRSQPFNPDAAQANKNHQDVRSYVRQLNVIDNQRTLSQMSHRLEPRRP

activation, inactive:
O=C(CN1CCN(Cc2ccc3c(c2)OCO3)CC1)N1c2ccccc2Sc2ccccc21 11.6%
COc1ccc(Oc2ncc3nc(-c4ccc(F)cc4)c(=O)n(C4CC4)c3n2)cc1 -4.93%
CC1O[C@@H](Oc2c(-c3ccc(O)c(O)c3)oc3cc(O)cc(O)c3c2=O)C(O)C(O)C1O (stereo not given in full) -15.4%
N[C@@H](Cc1ccc(F)cc1)C(=O)O -32.3%
O=C(Oc1ccccc1)N1CCC2(CCCN(c3ccccn3)C2)CC1 3.91%
Cn1c2ccccc2c(=O)c2ccc(F)cc21 -2.58%
C[C@@H](CSc1ccc(Br)cc1)CN1CC[C@H](O)CCC1=O -11.2%
O=C(O)[C@@H]1C[C@H](CP(=O)(O)O)CCN1 -20.5%
CC1=CC2C(=O)c3cccc(O)c3C(=O)C2C(O)=C1 (stereo not given) 13.1%
O=P(O)(O)C(O)(Cc1cccnc1)P(=O)(O)O -5.12%
O=C(O)c1cc(O)c(O)c(O)c1 7.85% and -6.38%
CC(C)=CCc1c(O)cc(C)oc1=O -17.8%
Nc1ccc(N=Nc2ccccc2)c(N)n1 -1.32% and 18.7%
CCN(CC)C(=O)N1CCN(C)CC1 3.46% and 14.5%
C/C=C1\C2C=C(C)C[C@@]1(N)c1ccc(=O)[nH]c1C2 7.89%
O=C1CCN(Cc2ccc([N+](=O)[O-])cc2)CCN1[C@H](CO)c1ccccc1 -19.6%
COc1ccc(-n2c(=O)c(-c3cccs3)nc3cnc(N4CCNCC4)nc32)cc1 -9.96%
O=C(c1cnccn1)N1CCC2(CCCN(c3cccc(-c4ccccc4)c3)C2)CC1 17%
CCCCC#Cc1nc(NC)c2ncn([C@@H]3O[C@H](CO)[C@@H](O)[C@H]3O)c2n1 -17.8%
COc1ccccc1-c1ccnc(-n2ncc(C(=O)NC(C)(C)CO)c2C2CC2)n1 3.59%
C=CCN1CCCC1CNC(=O)c1cc(S(N)(=O)=O)cc(OC)c1OC (stereo not given) 11.7%
Cc1nc(NCc2cnn(C)c2C)sc1-c1ccn(CC2COc3ccccc3O2)n1 (stereo not given) -20%
Cn1cccc1C(=O)N1CCC[C@@]2(CCN(c3ccccc3)C2)C1 3.25%
OC1OC[C@@H](O)[C@H](O)[C@@H]1O (stereo not given in full) -13.2%
N#Cc1ccc(CN2CCCC3(CCNCC3)C2)cc1 -8.86%
O=C(NCC1CCC2(CCN(Cc3ccccc3O)CC2)O1)C1CCCO1 (stereo not given) -8.89%
CC(C)(C)C(O)/C=C/c1ccc2c(c1)OCO2 (stereo not given) -27.3%
CC/C(=C\c1ccccc1)c1cccc2oc3ccccc3c12 -22.7%
Nc1cc(N2CCCCC2)nc(N)[n+]1OS(=O)(=O)[O-] -10.1% and -1.75%
C[C@@H]1CC[C@@]2(OC1)OC1CC3C4CC=C5CC(O)CCC5(C)C4CCC3(C)C1[C@@H]2C (stereo not given in full) -17.9%
COc1ccc(CNc2ccnc(-c3ccccc3C(F)(F)F)n2)c(OC)c1 -6.06%
O=[N+]([O-])c1ccc(Oc2ccc(N=C=S)cc2)cc1 14.8%
CC[C@]1(O)C[C@@H]2CN(CCc3c([nH]c4ccccc34)[C@@](C(=O)OC)(c3cc4c(cc3OC)N(C)[C@H]3[C@@](O)(C(=O)OC)[C@H](OC(C)=O)[C@]5(CC)C=CCN6CC[C@]43[C@@H]65)C2)C1 -6.97% and -10.4%
CN(C)CCOC(c1ccccc1)c1ccccc1 (tested in a mixture with another compound) -8.39%
C=C(C)C1CC=C(C)CC1 (stereo not given) -10.1%
Cn1cnc2c(NC3CCCC3)ncnc21 -7.47%
COc1ccc2[nH]cc(CCNc3ncnc4ccc(-c5cccc(C#N)c5)cc34)c2c1 12.5%
CCOC(=O)c1c(C)cc(O)c(C)c1O 1.13%
CC(CCc1ccc(O)cc1)NCC(O)c1ccc(O)cc1 (stereo not given) -31.8%
CCN(CCCc1ccccc1)CCCc1ccccc1 13.2% and 0.917%
CN(C)Cc1ccccc1-c1nccc(NC2CC2)n1 -7.09%
CCCCC(CC)COC(=O)c1ccccc1O (stereo not given) -6.95%
Cc1c(C)c2c(c(C)c1O)CC[C@@](C)(CCC[C@H](C)CCC[C@H](C)CCCC(C)C)O2 1.42% and -9.92% and -47%
C[C@@H](C1=C(CCN(C)C)Cc2ccccc21)c1ccccn1 -24.1%
O=C(CCN1CCN2CCCC2C1)N1c2ccccc2Sc2ccc(Cl)cc21 (stereo not given) -16.1%
O=C(O)CCC(=O)C(=O)O (tested in a mixture with another compound) -13.1%
O=C(Nc1ccccc1)N1CC2(CCN(C(=O)c3ccco3)CC2)C1 -16.9%
COC1C(O)C(CO)OC1n1c(Br)nc2c(=O)[nH]c(N)nc21 (stereo not given) 3.55%
O=C(NCC1CCC2(CCN(Cc3cccn3-c3ccc(Cl)cn3)CC2)O1)c1ccccc1 (stereo not given) -15.5%
CCCCCCCCCCCCCCCCCC[N+](C)(C)CCC[Si](OC)(OC)OC -8.74%
COc1ccc(CN2CCOc3ccc(C(O)c4cccnc4)cc3C2)c(OC)c1OC (stereo not given) -2.89%
COc1ccc2cc(CNCc3ccccc3Cl)c(N3CCCC(CO)C3)nc2c1 (stereo not given) -1.78%
Cn1c(=O)c(-c2ccc(F)cc2)nc2cnc(Oc3ccccc3)nc21 -17.6%
N#Cc1cccc(NC(=O)N2CC3(CCN(C(=O)c4cc(C(F)(F)F)cc(C(F)(F)F)c4)CC3)C2)c1 -11.2%
Cc1oc(-c2ccccc2NC(=O)C2CCC2)nc1CNC(=O)c1ccccn1 -16.5%
Cc1c(C(=O)NCCc2ccncc2)cnn1-c1nccc(-c2ccccc2C(F)(F)F)n1 -21.1%
CO/N=C1\CN(c2nc3c(cc2F)c(=O)c(C(=O)O)cn3C2CC2)CC1CN (stereo not given) -18%
NC(=O)NO -14.3% and -26.2%
Clc1ccccc1C(c1ccccc1)(c1ccccc1)n1ccnc1 -31.2% and -8.84% and -35.2%
O=S(=O)(c1ccccc1)N1CCC2(CC1)CN(C(c1ccccc1)c1ccccc1)C2 14.6%
CNc1ccnc(-c2ccccc2C)n1 -3.3%
O=S1(=O)CCOC[C@H](c2ccccc2)N1Cc1ccccc1F -13.6%
Cc1nn(-c2ccccc2)c(C)c1CC(=O)NCC1Cc2cc(-c3cncnc3)ccc2O1 (stereo not given) -20.2%
COc1ccc(-n2c(CNC(=O)c3ccc(OC)cc3OC)nnc2SC)cc1 -13.1%
CCCCCCCCCCCCCCCC(=O)C1=C(O)C(CO)OC1=O (stereo not given) -9.54%
CC(C)=CCC/C(C)=C/COc1ccc2ccc(=O)oc2c1 -1.33%
C=CC[N@@+]12CC[C@@]34c5ccccc5N5/C=C6/[C@H]7C[C@H]8[C@@]9(CC[N@@+]8(CC=C)C/C7=C/CO)c7ccccc7N(/C=C(/[C@@H](C[C@@H]31)/C(=C\CO)C2)[C@H]54)[C@@H]69 -0.191%
O=C(C1CCOC1)N1CCOc2ccc(CN3CCC(Oc4cccnc4)CC3)cc2C1 (stereo not given) -18.9%
CCCSS/C(CCO)=C(\C)N(C=O)Cc1cnc(C)nc1N 8.63%
COc1cc(CC(=O)O)ccc1O 12.1% and -55.9%
O=C(c1cccc(F)c1)N1CCC2(CC1)CCN(c1ccc(-c3ccccc3)cc1)CC2 1.94%
O=c1[nH]c2cc(Cl)ccc2c(O)c1-c1ccc(Oc2ccccc2)cc1 -23.5%
O=C(c1cccc(F)c1)N1CCC2(CCN(Cc3cc(C(F)(F)F)cc(C(F)(F)F)c3)CC2)CC1 -23%
COc1c(OC)c2occc2c2oc(=O)ccc12 -6.36%
N#C/C(=C\c1cc(Cl)cc(Cl)c1)c1cccnc1 -3.87% and -17.4%
COc1ccccc1N1CCN(C[C@@H](C(=O)NC(C)(C)C)c2ccccc2)CC1 -11.1%
CCOC(=O)c1ccc(OC(=O)CCCCCN=C(N)N)cc1 -14.8% and -27%
CCCC(C(=O)OCCN(CC)CC)(c1ccccc1)c1ccccc1 -3.61% and -13.2%
CN(C)c1ncc2nc(-c3cccs3)c(=O)n(CCc3ccccc3)c2n1 6.09%
CC(=O)CCC(=O)N1CCC(n2c(C3CCCO3)nc3cc(C(F)(F)F)ccc32)CC1 (stereo not given) -8.43%
CN1CCC[C@H]1c1cccnc1 -1.82% [middle of 4 runs]
O=c1c(-c2cc(F)cc(F)c2)nc2cnc(Oc3ccccc3)nc2n1C[C@H]1CCCO1 -10.1%
COCCn1c(=O)c(-c2ccc(Cl)cc2)nc2cnc(Oc3ccccc3)nc21 5.43%
Cc1cnc(-n2ncc(C(=O)NCCN3CCOCC3)c2C2CC2)nc1-c1cccs1 7.53%
COc1ccc(-n2c(=O)c(-c3ccc(Cl)cc3)nc3cnc(N(C)C)nc32)cc1 -5.08%
